Results taken from publication PMC4336329 (PLoS ONE, 2015).
About 14,000 (4.5%) of roughly 310,000 compounds showed an effect of 50% or more. The effect is printed as a negative number. The list shows a part of the results.

Biological target: human ether-à-go-go-related gene (hERG) potassium channel (human, UniProt Q12809)
Test: primary screen, population patch clamp on CHO cells stably expressing hERG
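Also: peak tail current of the secondary pulse compared with the same well before compound.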

Chain of human ether-à-go-go-related gene (hERG) potassium channel (Q12809 whole entry, looked up): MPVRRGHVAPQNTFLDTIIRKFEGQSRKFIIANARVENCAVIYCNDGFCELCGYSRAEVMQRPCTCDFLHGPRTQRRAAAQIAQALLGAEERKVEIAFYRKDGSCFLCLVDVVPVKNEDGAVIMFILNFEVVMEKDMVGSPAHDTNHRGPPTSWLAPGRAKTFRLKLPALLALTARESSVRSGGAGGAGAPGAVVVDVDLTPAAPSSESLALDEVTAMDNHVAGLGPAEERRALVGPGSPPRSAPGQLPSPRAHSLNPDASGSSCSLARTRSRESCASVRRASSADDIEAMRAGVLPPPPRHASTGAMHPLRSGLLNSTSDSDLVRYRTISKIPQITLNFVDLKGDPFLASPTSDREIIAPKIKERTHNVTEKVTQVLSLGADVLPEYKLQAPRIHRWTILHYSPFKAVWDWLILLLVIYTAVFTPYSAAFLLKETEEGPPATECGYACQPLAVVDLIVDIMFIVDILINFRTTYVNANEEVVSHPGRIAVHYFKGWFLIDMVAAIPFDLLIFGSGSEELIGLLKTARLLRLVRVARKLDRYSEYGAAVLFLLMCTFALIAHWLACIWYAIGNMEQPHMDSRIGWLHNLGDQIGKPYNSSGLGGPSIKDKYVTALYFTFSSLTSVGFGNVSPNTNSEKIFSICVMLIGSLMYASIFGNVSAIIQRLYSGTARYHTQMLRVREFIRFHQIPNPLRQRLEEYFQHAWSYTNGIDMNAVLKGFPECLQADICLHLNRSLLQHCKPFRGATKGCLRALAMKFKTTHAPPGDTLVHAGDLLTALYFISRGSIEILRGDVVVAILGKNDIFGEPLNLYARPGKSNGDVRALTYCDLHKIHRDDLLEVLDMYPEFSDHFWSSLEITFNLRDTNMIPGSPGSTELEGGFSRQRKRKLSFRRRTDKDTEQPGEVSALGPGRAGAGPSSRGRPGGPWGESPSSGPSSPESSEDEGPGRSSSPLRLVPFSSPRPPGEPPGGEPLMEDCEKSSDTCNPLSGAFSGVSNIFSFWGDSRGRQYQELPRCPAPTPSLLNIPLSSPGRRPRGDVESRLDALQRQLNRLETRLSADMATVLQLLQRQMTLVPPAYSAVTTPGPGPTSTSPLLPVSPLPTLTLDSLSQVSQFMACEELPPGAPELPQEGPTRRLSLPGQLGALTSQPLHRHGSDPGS

Row | Compound | hERG current change (%, negative = inhibition) at 10uM [%]
1 | CCOc1ccc(OCc2cccc(C(=O)N3CCOCC3)c2)cc1 | -1.62
2 | CC(=O)c1sc(-c2ccccn2)nc1C | 16.8
3 | CCc1cccc(CC)c1NC(=O)C1CN(S(=O)(=O)c2ccccc2)CCN1S(=O)(=O)c1ccccc1 (stereo not drawn) | 9.16
4 | CC(=O)c1cc(-c2ccccc2)n(CC(=O)N2CCCC2)c1C | 13.3
5 | Nc1nnc(SCC(=O)Nc2sc3c(c2C(=O)c2ccccc2)CCCC3)s1 | -2.05
6 | CC(OC(=O)/C=C/c1ccccc1)C(=O)Nc1ccc2c(c1)OCCO2 (stereo not drawn) | 16.7
7 | CN1CCN(CCCNC(=O)c2ccc(NC(=O)C3=CSCCO3)cc2)CC1 | 11.5
8 | O=C(O)C(Br)CBr (stereo not drawn) | 23.6
9 | Cc1nonc1C1CCCN1Cc1cn[nH]c1-c1ccc(-c2ccccc2)cc1 (stereo not drawn) | -24.6
10 | COc1cc(CCC(=O)NCc2ccc3c(c2)OCO3)cc(OC)c1OC | 3.07
11 | CC(CSc1nc2ccccc2s1)Cn1c(N2CCCC2)nc2c1c(=O)[nH]c(=O)n2C (stereo not drawn) | -38.2
12 | O=C(CSc1ncnc2c1oc1ccccc12)Nc1nc2ccccc2s1 | 11.1
13 | C/C(=N\Nc1ccc(C(F)(F)F)cn1)c1ccncc1 | -17.5
14 | CC1CCCCN1C(=O)CSc1nnc(-c2cccnc2)n1C1CCCCC1 (stereo not drawn) | -15.5
15 | CCOC(=O)COc1ccc(Oc2nc(C)cc(OC)n2)nn1 | -7.8
16 | O=c1c2ccccc2sn1-c1cc(S(=O)(=O)N2CCOCC2)ccc1N1CCOCC1 | 10.8
17 | Cc1cccc2cc(CN(CCCO)C(=O)Nc3ccccc3Cl)c(=O)[nH]c12 | 5.32
18 | COc1ccc(/C=N/Nc2cn[nH]c(=O)c2Cl)cc1 | 9.01
19 | COc1ccc2c(C)c(CC(=O)N3C[C@H]4C[C@@H](C3)c3cccc(=O)n3C4)c(=O)oc2c1 | -32.4
20 | Cc1ccccc1P(=O)(CO)c1ccccc1C | -0.622
21 | CC(=O)Nc1nc(C(=O)Nc2c(C)n[nH]c2C)cs1 | -2.95
22 | Cc1ccc(N(CC(=O)NC2CCCCC2)C(=O)CCC(=O)Nc2nccs2)cc1 | -4.93

Row | Compound | hERG current change (%, negative = inhibition) at 10uM [%]
23 | Cc1ccc(C)c(S(=O)(=O)N/N=C/c2cccnc2)c1 | 7.65
24 | CSc1nc2[nH]c3c(c2c2nncn12)CC(C)(C)OC3 | 4.02
25 | Cc1ccc2nc(-c3cccnc3)cc(C(=O)N3CCN(c4ccc([N+](=O)[O-])cc4)CC3)c2c1 | -68.2
26 | CCCOc1ccc(N2C(=O)CC(NCc3ccc(S(N)(=O)=O)cc3)C2=O)cc1 (stereo not drawn) | 4.38
27 | CCOC(=O)c1c(C)[nH]c(C)c1C(=O)COC(=O)/C=C/c1ccc(OC(F)F)cc1 | -24.1
28 | CCCn1c(=O)c(C(=O)NNS(=O)(=O)c2ccc(NC(=O)OC)cc2)c(O)c2ccccc21 | 9.85
29 | O=C(Nc1ccc(S(=O)(=O)Nc2ccc(F)cc2)cc1)c1ccc(CN2CCOCC2)cc1 | -21.4
30 | CCc1nnc(NC(=O)CCC(=O)NCC2CCCO2)s1 (stereo not drawn) | -23.5
31 | CN1CCN(C(=O)CCCN2C(=O)/C(=C/c3ccccc3)SC2=S)CC1 | -31.6
32 | CCn1nc2cc(C(=O)NCC34CC5CC(CC(C5)C3)C4)ccc2c1OC | -7.34
33 | N#Cc1ccc(C(=O)NCCCSc2ccccc2)cc1 | -32.8
34 | COCCCN1CCN(C2Cc3ccccc3Sc3ccc(Cl)cc32)CC1.O=C(O)/C=C\C(=O)O (stereo not drawn) | -73.5
35 | CC1(C)Cc2c(sc3nc4n(c(=N)c23)CCCCC4)CO1.Cl | -0.896
36 | O=C(NCCc1ccccc1Cl)C1CCC(=O)N(CCCc2ccccc2)C1 (stereo not drawn) | -34.1
37 | O=C(CC1CCCC1)N1CCCC(Nc2cccc(F)c2)C1 (stereo not drawn) | -9.5
38 | C/C(CC(=O)NC(C)C)=N\NC(=O)COc1cc(C)c(Br)cc1Br | -46.8
39 | Cc1ccsc1C(=O)NCC(C)(C)N1CCOCC1 | -9.41
40 | Cn1c(-c2ccc(F)cc2)cnc1SCC(=O)Nc1ccccc1N1CCOCC1 | -1.23
41 | O=C(NCCS(=O)(=O)NCc1ccc(Cl)cc1)c1ccccc1 | -13.6
42 | COc1ccccc1-c1coc2c(CN3CCCCC3C)c(O)ccc2c1=O (stereo not drawn) | 6.44
43 | O=C1c2ccccc2C(O)(Cc2ccccc2)N1Cc1ccco1 (stereo not drawn) | 10.1
44 | CC(CCc1ccccc1)NC(=O)/C=C/c1ccc(F)cc1 (stereo not drawn) | -23.2

Row | Compound | hERG current change (%, negative = inhibition) at 10uM [%]
45 | Brc1ccc(-c2nc(-c3cccnc3)no2)o1 | -2.14
46 | O=C(Nc1ncc2c(n1)-c1ccccc1OC2)c1cccc([N+](=O)[O-])c1 | -16.5
47 | C=CCOC(=O)c1ccccc1N | 17.5
48 | C[C@@H]1C=C(C(=O)N2CCOCC2)O[C@H](OCc2ccc(CO)cc2)C1 | 10.3
49 | Cc1nc2sc(C(c3ccccc3)N3CCOCC3)c(O)n2n1 (stereo not drawn) | 12.6
50 | Fc1ccc(-n2c(Cc3ccccc3)nnc2SCc2nc(-c3cccs3)no2)cc1 | -8.41
51 | COC(=O)c1cc(OC)c(OC)cc1NCC(=O)Nc1ccc(OC)c(OC)c1 | 19
52 | CCN(CC)c1nc(C)c(C(C)=O)cc1C#N | 0.00458
53 | Cc1cc(Cl)c(S(=O)(=O)NCc2ccncc2)cc1OCC(N)=O | 1.62
54 | CC(=O)Nc1ccc(NC(=O)C(C)n2nc(C)c([N+](=O)[O-])c2C)cc1 (stereo not drawn) | 7.8
55 | CC(SCc1ccc(C(=O)O)o1)c1ccc(C(=O)O)o1 (stereo not drawn) | 19.9
56 | CCOc1ccc(-n2c(SC)nc3c(c2=O)SCC3)cc1 | 19.8
57 | Cc1cc(OC(=O)c2cccs2)c2c3c(c(=O)oc2c1)CCCC3 | 17.9
58 | COc1ccc(C(C)=O)cc1CSc1nnnn1-c1ccc(O)cc1 | -21.5
59 | Cc1ccc(-n2c(O)c(C=NC3CCS(=O)(=O)C3)c3ccccc3c2=O)cc1C (stereo not drawn) | -27.1
60 | CCOP(=O)(OCC)C(O)c1ccc(OC)cc1 (stereo not drawn) | 13.6
61 | CCOc1ccc(NC(=O)COC(=O)CCCc2c[nH]c3ccccc23)cc1 | -14.4
62 | CCOc1ccc(C(C)=O)cc1CSc1nnc(-c2ccncc2)n1CCOC | -0.498
63 | N#CC1(C#N)CC(C=O)=C(N)C1(C#N)CC(=O)c1ccc(F)cc1 (stereo not drawn) | 7.03
64 | CC(C)(C)C1=CC=C(C(C)(C)C)C(=O)C1=O | 11.6
65 | COc1ccc(N2CCN(C3CCCN(Cc4cccc(C(C)=O)c4)C3)CC2)cc1 (stereo not drawn) | -30.2
66 | COc1ccc2c(c1)C(C1=C(O)CC(C)(C)CC1=O)C1=C(CC(C)(C)CC1=O)O2 (stereo not drawn) | -1.82

Row | Compound | hERG current change (%, negative = inhibition) at 10uM [%]
67 | CC1CCCC(C)N1C(=O)c1cccc2c1-c1ccccc1/C2=N/O (stereo not drawn) | 9.16
68 | CCNC(=O)NC(=O)CSc1ccccc1F | 10.7
69 | Cc1ccc(S(=O)(=O)N2CCCCC2)cc1NC(=O)CCOc1ccccc1 | 8.89
70 | O=C1CCCC2=C1Sc1ccccc1N2 | 24.7
71 | Cc1n[nH]c(=O)c2c(NC(=O)CSc3nn(-c4ccc(F)cc4)c(=S)s3)oc(C)c12 | -27.5
72 | CCOc1ccc2ncc(C(=O)c3ccc(OC)cc3)c(N3CCN(CC)CC3)c2c1 | -74.5
73 | CCC(NS(=O)(=O)c1cn(C)nc1C)c1ccccc1 (stereo not drawn) | 21.2
74 | N=c1c(C(=O)NCc2ccco2)cc2c(=O)n3ccccc3nc2n1CC1CCCO1 (stereo not drawn) | -76
75 | Clc1ccc(-c2noc(CCCc3ccccc3)n2)cc1 | 3.19
76 | Cc1cc(NS(=O)(=O)c2ccc(NC(=O)/C=C/c3ccc(Br)cc3)cc2)no1 | 20.1
77 | COc1ccc(C(C)=O)cc1CC(=O)N(Cc1ccccc1)c1ccccc1 | -33.4
78 | CCC1CN(C(=O)N2CCC(C(=O)Nc3ccccc3OC)CC2)c2ccccc2O1 (stereo not drawn) | 4.54
79 | O=C(CCc1ccccc1)N/N=C\c1cc2c(cc1Br)OCO2 | 5.19
80 | Nc1cccc2cc(-c3ccccc3)oc12 | -13.1
81 | O=c1[nH]cc([N+](=O)[O-])cc1Br | 2.05
82 | CCOC(=O)C(NC(=O)NC1CCCCC1)(c1ccccc1)C(F)(F)F (stereo not drawn) | -3.51
83 | O=C(CSc1ccc2nnc(-c3ccccn3)n2n1)Nc1nccs1 | -27.6
84 | O.OC[C@H]1O[C@H](OC[C@H]2O[C@H](OC[C@H]3O[C@H](O[C@]4(CO)O[C@H](CO)[C@@H](O)[C@@H]4O)[C@H](O)[C@@H](O)[C@@H]3O)[C@H](O)[C@@H](O)[C@H]2O)[C@H](O)[C@@H](O)[C@H]1O | 15.6
85 | Cc1cccnc1NC(=O)c1ccc(S(=O)(=O)N2CC(C)OC(C)C2)cc1 (stereo not drawn) | -1.37
86 | CC1CCN(C(=O)c2ccccc2NS(=O)(=O)c2ccccc2)CC1 | 8.52
87 | COc1ccc(OC)c(NC(=O)c2nc(S(=O)(=O)Cc3ccccc3)ncc2Cl)c1 | 8.43
